This note sets out measurements from ChEMBL document CHEMBL4888484, “Replenishing the malaria drug discovery pipeline: Screening and hit evaluation of the MMV Hit Generation Library 1 (HGL1) against asexual blood stage Plasmodium falciparum ,using a nano luciferase reporter read-out” (2022).

About 540 (0.36%) of roughly 150,000 compounds showed an effect of 50% or more. The list shows a part of the results.

The test system of this experiment is Plasmodium falciparum. Briefly: Primary screen in NF54 nanoGlo assay, in single point, at 2uM, 72h; a lower Z score goes with more inhibition. The format is functional, Erythrocyte. Particulars: timepoint 72 hour.
As to `Cc1cc(C(=O)N2CCN(CC(=O)Nc3ccncc3)CC2)on1`, the “% Inhibition” value is on record as 1% and the Z score was -0.08.

Take `CCc1ccc(CNC(=O)c2cnn3c4c(cnc23)C(=O)CC(C)(C)C4)cc1`: the “% Inhibition” value was -16% and the Z score is reported as 2.26.

On to `CC[C@@H](C(=O)N(C)CCC1CCOCC1)n1cccn1`, for which the “% Inhibition” value is reported as -19% and the Z score worked out at 2.07.

Consider `O=C(COc1ccccc1)Nc1nnc(-c2ccco2)o1`, for which the “% Inhibition” value is given as -11% and the Z score is reported as 1.81.

For the compound `Cc1ccc(CN2C[C@H]3CN(Cc4ccc(C#N)cc4)CCN3C2=O)cc1`, the “% Inhibition” value is given as 11% and the Z score is on record as -1.8.

Take `Cn1ccnc1CN1CCC[C@@](O)(CNS(=O)(=O)c2cccs2)CC1`: the “% Inhibition” value stood at 36% and the Z score is -4.56.

In the case of `CN(Cc1ccc(C(F)(F)F)nc1)CC1(CO)CCCC1`, the “% Inhibition” value is -2% and the Z score is reported as 0.29.

Turning to `c1ccc(N2CCCC2)c(-c2nc([C@H]3CCOC3)no2)c1`, the “% Inhibition” value is -21% and the Z score was 2.24.

In the case of `C=CCCS(=O)(=O)N1CCC[C@H](c2nncn2C2CC2)C1`, the “% Inhibition” value was -4% and the Z score was found to be 0.58.

Turning to `COc1cc(CN2CC(Oc3ccc(-c4noc(-c5ccncc5)n4)cc3)C2)cc(OC)c1`, the “% Inhibition” value was -12% and the Z score came out at 2.27.

`Cc1ccc(-c2ccc(CNCc3cnc4n3CCCC4)o2)cc1`: the “% Inhibition” value worked out at 1% and the Z score is reported as -0.07.

For `CC(=O)NCc1ccc(N2CC[C@H](c3cccc(Cl)c3)C2)nc1`, the “% Inhibition” value is reported as -10% and the Z score worked out at 2.06.

Regarding `O=C(NCCc1nc2ccccc2[nH]1)N[C@@H]1CCc2cc(F)ccc21`, the “% Inhibition” value is on record as -8% and the Z score turned out to be 1.44.

Take `COc1cc(Cl)c(CN2CCC3(CC2)C[C@@H]3C(=O)N2CCN(c3ccccc3)CC2)cc1OC`: the “% Inhibition” value was -1% and the Z score came out at 0.08.

With `Cc1nc(CNC(=O)[C@H](C)n2ccnc2C)n(C)c1C`, the “% Inhibition” value is -7% and the Z score is 1.23.

Consider `Cc1ccc2nc(C)n(C3CCN(C(=O)C(C)C)CC3)c2c1`, for which the “% Inhibition” value is listed as -14% and the Z score is on record as 2.71.

For the compound `CC(C)Cc1ncc(C(=O)Nc2csc(C(N)=O)c2)s1`, the “% Inhibition” value was -15% and the Z score was 2.43.

Turning to `Cc1nccc(N2CCC[C@@]3(CCC(=O)N(CCc4c[nH]cn4)C3)C2)n1`, the “% Inhibition” value came to 9% and the Z score is -1.6.

Take `O=C(O)C1(C(=O)N2CCN(Cc3cc(Br)ccc3F)CC2)CCC1`: the “% Inhibition” value is reported as -12% and the Z score worked out at 1.16.

In the case of `Fc1ccc(-c2cnc3n2C[C@H](CNCCc2ccccc2)OC3)cc1`, the “% Inhibition” value turned out to be 21% and the Z score is on record as -2.4.

On to `CC(NC(=O)C1CCCN1c1ncnc2sccc12)c1ncon1` (stereo unspecified), for which the “% Inhibition” value is reported as -5% and the Z score was determined as 0.65.

For `CC(C)C[C@@H](CC(=O)O)NC(=O)c1ccc(O)c(Cl)c1`, the “% Inhibition” value was -4% and the Z score turned out to be 0.81.

For the compound `Cc1cc(N[C@H]2CCO[C@@H]2c2cnn(C)c2)nc(C)n1`, the “% Inhibition” value is on record as -13% and the Z score came to 1.72.

As a reminder, the % Inhibition is the change of the read-out against control, counted positive when it falls.
